Values marked as one replicate rest on one cluster of the flow cell; about a third of the high ones do not repeat.
test system: ATP; experiment: switch fluorescence ratio, 500 uM ATP over buffer (Cy3 cluster intensity, sum of 5 cycles each) (fold (ratio)); higher = stronger signal-on switching upon ATP binding; sequences stand for … in TCGTCGGCAGCGTCAGATGTGTATAAGAGACAGTTTTTTTTTTTTTTTTTTTTTTTTT…TC; settings: aptamer strand: ATP DNA aptamer (quencher-CACCTGGGGGAGTATTGCGGAGGAAGG + anchor), 100 nM annealed; ATP concentration: 500 uM; one replicate
Summary of the method: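 Five buffer/ATP imaging cycles were run on Cy3-labelled switching-strand clusters on a modified Illumina MiSeq flow-cell, with NaOH stripping and re-annealing between cycles. In each cycle, clusters annealed to 100 nM quencher-labelled ATP aptamer were imaged in selection buffer, then after 15 min with 500 uM ATP at 22 °C. Per cluster, the fluorescence ratio is summed target-cycle over summed buffer-cycle Cy3 intensity, averaged per switch-domain sequence. Only clusters within 100-1000 RFU were kept.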
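Also: ATP exposure 15 min at 22 °C before imaging.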

Q: How did the switch fluorescence ratio turn out when GGATGCGGAG was run?
A: 0.993

Q: For GGATGGAATA, which switch fluorescence ratio is on record?
A: 0.985

Q: How did the switch fluorescence ratio turn out when GGATGGACTA was run?
A: 0.989

Q: For GGATGGAGGA, which switch fluorescence ratio is on record?
A: 0.944

Q: With GGATGTATTT as the sequence, how does the switch fluorescence ratio read?
A: 0.986

Q: Which switch fluorescence ratio does the source give for GGATGTCAAA here?
A: 0.975

Q: With GGATGTGCAG as the sequence, how does the switch fluorescence ratio read?
A: 1

Q: With GGATTAATTC as the sequence, how does the switch fluorescence ratio read?
A: 1.04

Q: GGATTGAAA was tested. Which switch fluorescence ratio did it give?
A: 0.971

Q: How did the switch fluorescence ratio turn out when GGATTTCGCC was run?
A: 1.01

Q: How did the switch fluorescence ratio turn out when GGCAAACGTT was run?
A: 1.02

Q: With GGCAACCTGG as the sequence, how does the switch fluorescence ratio read?
A: 1

Q: With GGCAATGGCT as the sequence, how does the switch fluorescence ratio read?
A: 1.05

Q: For GGCACAATGC, which switch fluorescence ratio is on record?
A: 1.25

Q: For GGCACCGGGC, which switch fluorescence ratio is on record?
A: 1.04

Q: With GGCACCTTCA as the sequence, how does the switch fluorescence ratio read?
A: 1.95

Q: Which switch fluorescence ratio does the source give for GGCACGGGCC here?
A: 0.973

Q: GGCACTCAGG was tested. Which switch fluorescence ratio did it give?
A: 1.06

Q: For GGCACTCATG, which switch fluorescence ratio is on record?
A: 1.01

Q: How did the switch fluorescence ratio turn out when GGCAGATACA was run?
A: 1.04

Q: Which switch fluorescence ratio does the source give for GGCAGCATC here?
A: 1.19

Q: With GGCAGGAATC as the sequence, how does the switch fluorescence ratio read?
A: 1.07

Q: With GGCAGGACGT as the sequence, how does the switch fluorescence ratio read?
A: 1.03

Q: GGCAGGGAGT was tested. Which switch fluorescence ratio did it give?
A: 0.946

Q: How did the switch fluorescence ratio turn out when GGCAGGGCCC was run?
A: 0.96

Q: For GGCAGGTGTG, which switch fluorescence ratio is on record?
A: 1.16

Q: For GGCAGTGTTA, which switch fluorescence ratio is on record?
A: 0.938

Q: Which switch fluorescence ratio does the source give for GGCAGTTATC here?
A: 1.05

Q: Which switch fluorescence ratio does the source give for GGCATAGC here?
A: 1.01

Q: With GGCATATCTA as the sequence, how does the switch fluorescence ratio read?
A: 1.04

Q: GGCATCAGGT was tested. Which switch fluorescence ratio did it give?
A: 1.05

Q: For GGCATCTCGC, which switch fluorescence ratio is on record?
A: 1.01

Q: For GGCATCTGGC, which switch fluorescence ratio is on record?
A: 1.03

Q: With GGCATCTGGT as the sequence, how does the switch fluorescence ratio read?
A: 0.948

Q: How did the switch fluorescence ratio turn out when GGCATGTGGC was run?
A: 1.03

Q: GGCCACCGCG was tested. Which switch fluorescence ratio did it give?
A: 1.03

Q: For GGCCACCTAA, which switch fluorescence ratio is on record?
A: 1.02

Q: How did the switch fluorescence ratio turn out when GGCCCAGCAG was run?
A: 1.08

Q: GGCCCAGTCC was tested. Which switch fluorescence ratio did it give?
A: 1.02

Q: With GGCCCATGGA as the sequence, how does the switch fluorescence ratio read?
A: 1.01

Q: How did the switch fluorescence ratio turn out when GGCCCGAAAC was run?
A: 1.08

Q: For GGCCCGAGAT, which switch fluorescence ratio is on record?
A: 1.03

Q: With GGCCCGGCTA as the sequence, how does the switch fluorescence ratio read?
A: 1.02

Q: GGCCGACCTC was tested. Which switch fluorescence ratio did it give?
A: 1.19

Q: How did the switch fluorescence ratio turn out when GGCCGAGCGG was run?
A: 1.02

Q: With GGCCGCCAGC as the sequence, how does the switch fluorescence ratio read?
A: 1.03

Q: Which switch fluorescence ratio does the source give for GGCCGCGCCT here?
A: 1.11

Q: How did the switch fluorescence ratio turn out when GGCCGGGGC was run?
A: 1.01

Q: For GGCCGGTCCT, which switch fluorescence ratio is on record?
A: 1

Q: GGCCGTCTAG was tested. Which switch fluorescence ratio did it give?
A: 0.999

Q: For GGCCGTTGCG, which switch fluorescence ratio is on record?
A: 1.01

Q: With GGCCTATTC as the sequence, how does the switch fluorescence ratio read?
A: 1.02

Q: Which switch fluorescence ratio does the source give for GGCCTTTAGT here?
A: 1.02

Q: GGCGAAACTG was tested. Which switch fluorescence ratio did it give?
A: 1.52

Q: How did the switch fluorescence ratio turn out when GGCGAACGTG was run?
A: 0.986

Q: For GGCGAGCGAT, which switch fluorescence ratio is on record?
A: 1.04

Q: GGCGATGAGA was tested. Which switch fluorescence ratio did it give?
A: 1.05

Q: GGCGCAAGGG was tested. Which switch fluorescence ratio did it give?
A: 1.28

Q: With GGCGCACAGG as the sequence, how does the switch fluorescence ratio read?
A: 1.38

Q: How did the switch fluorescence ratio turn out when GGCGCCACGG was run?
A: 0.981

Q: How did the switch fluorescence ratio turn out when GGCGCCGCTA was run?
A: 0.985

Q: Which switch fluorescence ratio does the source give for GGCGCGAAGG here?
A: 0.976

Q: For GGCGCGGGCC, which switch fluorescence ratio is on record?
A: 1

Q: How did the switch fluorescence ratio turn out when GGCGCTATTT was run?
A: 0.956

Q: For GGCGCTTGTG, which switch fluorescence ratio is on record?
A: 0.973

Q: For GGCGCTTTCA, which switch fluorescence ratio is on record?
A: 0.975

Q: How did the switch fluorescence ratio turn out when GGCGGAACCT was run?
A: 1.58

Q: For GGCGGAATAG, which switch fluorescence ratio is on record?
A: 1.89

Q: Which switch fluorescence ratio does the source give for GGCGGATCT here?
A: 0.999

Q: For GGCGGCCCCT, which switch fluorescence ratio is on record?
A: 1.02

Q: For GGCGGCTGGT, which switch fluorescence ratio is on record?
A: 0.832

Q: Which switch fluorescence ratio does the source give for GGCGGGAGGC here?
A: 1.01

Q: For GGCGGTCGTA, which switch fluorescence ratio is on record?
A: 0.999

Q: How did the switch fluorescence ratio turn out when GGCGGTTCAG was run?
A: 0.938

Q: Which switch fluorescence ratio does the source give for GGCGTAATAA here?
A: 1.73

Q: Which switch fluorescence ratio does the source give for GGCGTACGA here?
A: 1.04

Q: For GGCGTACGT, which switch fluorescence ratio is on record?
A: 0.964

Q: GGCGTAGTT was tested. Which switch fluorescence ratio did it give?
A: 0.977

Q: With GGCGTATCAT as the sequence, how does the switch fluorescence ratio read?
A: 0.967

Q: Which switch fluorescence ratio does the source give for GGCGTCGGAC here?
A: 1.02

Q: Which switch fluorescence ratio does the source give for GGCGTGACTC here?
A: 1.08

Q: With GGCGTGCCCA as the sequence, how does the switch fluorescence ratio read?
A: 1.05

Q: With GGCGTTAAGC as the sequence, how does the switch fluorescence ratio read?
A: 0.985

Q: How did the switch fluorescence ratio turn out when GGCGTTGACG was run?
A: 0.995

Q: GGCGTTTATT was tested. Which switch fluorescence ratio did it give?
A: 1.02

Q: GGCTAATCTA was tested. Which switch fluorescence ratio did it give?
A: 0.967

Q: Which switch fluorescence ratio does the source give for GGCTACGTTG here?
A: 1.01

Q: With GGCTACTTAA as the sequence, how does the switch fluorescence ratio read?
A: 1.04

Q: For GGCTAGATTT, which switch fluorescence ratio is on record?
A: 1.06

Q: GGCTAGCCTC was tested. Which switch fluorescence ratio did it give?
A: 1.01

Q: With GGCTATAGAT as the sequence, how does the switch fluorescence ratio read?
A: 0.97

Q: Which switch fluorescence ratio does the source give for GGCTATCCCG here?
A: 0.984

Q: Which switch fluorescence ratio does the source give for GGCTCAGTTG here?
A: 1.18

Q: How did the switch fluorescence ratio turn out when GGCTCATGCG was run?
A: 0.974

Q: How did the switch fluorescence ratio turn out when GGCTCCAGAA was run?
A: 0.995

Q: For GGCTCCCTTT, which switch fluorescence ratio is on record?
A: 1.04

Q: GGCTCCGCGC was tested. Which switch fluorescence ratio did it give?
A: 5.49

Q: GGCTCGTAGC was tested. Which switch fluorescence ratio did it give?
A: 0.956

Q: Which switch fluorescence ratio does the source give for GGCTCGTCTA here?
A: 0.98

Q: GGCTCGTGGG was tested. Which switch fluorescence ratio did it give?
A: 1.03

Reference: the supplement of paper PMC10126150
